Source: PubChem BioAssay AID1671194 (National Center for Advancing Translational Sciences (NCATS), 2021)
The campaign covered roughly 140,000 compounds. About 240 (0.17%) were called active. This list was built around the results that the source calls inconclusive (neither active nor inactive); the mix of calls is not that of the screen. The call rests on the fitted dose curve; in most records, active means well fitted inhibition curve with a large enough effect; inconclusive means small, poorly fitted or top-dose-only effect; inactive means no such curve, though single readings can be large or run the other way. Where the call is inconclusive, the potency comes from a doubtful curve fit.

Assay: Primary qHTS assay for inhibitors of alpha-synuclein gene (SNCA) expression; further: nearly all actives have a fitted effect of over 45% in size;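 on activity change, negative = inhibition: plate controls were DMSO cells for no effect and cell-free wells for full effect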
Details: HEK-293 SNCA-luciferase knock-in, luminescence, 24 h; activity change, negative = inhibition: at 57.2 µM (top of the series) unless noted
Potency means the concentration at half of the fitted maximal effect; tags describe the fitted curve by direction and shape.

SMILES | Potency | activity change, negative = inhibition
c1cc(-c2cc(-c3ccncc3)c3cncn3c2)c2[nH]ccc2c1 | inconclusive: 63.1 µM [inhibitor, partial curve, poor fit] | –
COc1ccc(-n2nnnc2N2CCN(C(=O)Nc3ccc(C)c(F)c3)CC2)cc1C | – | inactive: -27.4%
COc1ccc(-c2noc(N3CCc4ccccc43)n2)cc1 | – | inactive: 60%
CCCOc1ccc(CN2CCC(C)(c3noc(C4CCOCC4)n3)CC2)cc1 | inconclusive: 17.8 µM [inhibitor, partial curve, poor fit] | –
COc1ccc(Cl)cc1C(=O)N1CCC(Oc2nccnc2N(C)C)C1 (stereo not drawn) | – | inactive: 199%
CC(C)CNC(=O)CC(c1cccc([N+](=O)[O-])c1)c1c[nH]c2ccccc12 (stereo not drawn) | inconclusive: 10 µM [inhibitor, partial curve, poor fit] | –
COCC1CN(C2CCC2)CC12CCN(Cc1ccc(OC)c(OC)c1)CC2 (stereo not drawn) | inconclusive: 25.1 µM [inhibitor, single point] | –
COc1ccccc1-c1nc(-c2c(C)noc2C)cc2cc(CN(C)C)oc12 | – | inactive: 52.1% [at 87.6 µM]
CN1[C@@H](CCC(=O)NCc2ccccc2)CNC(=O)[C@@H]2[C@H]1CCN2Cc1ncc[nH]1 | inconclusive: 12.6 µM [inhibitor, single point] | –
COc1ccc(OC)c(CN2CCCn3nc(C)c(-c4cccnc4N4CCOCC4)c32)c1 | – | inactive: 51.2%
COc1ccc(Cl)cc1C(=O)N1CCCN(c2cc(-c3ccc(F)cc3)[nH]n2)CC1 | – | inactive: -5.35%
O=C(C1CCC(CNS(=O)(=O)c2cccs2)CC1)N1CCN(c2ccc(Cl)cc2)CC1 (stereo not drawn) | inconclusive: 15.8 µM [inhibitor, partial curve, poor fit] | –
Cc1ccccc1-n1c2nc(=O)[nH]c(=O)c-2cc2c(Cl)cccc21 | inconclusive: 7.08 µM [inhibitor, single point] | –
Cc1cccc(Cn2c(SCc3ccc(C(=O)NCc4cccs4)cc3)nc3cccnc32)c1 | inconclusive: 39.8 µM [inhibitor, single point] | –
COc1ccc(-c2cnc(NC(=O)Cc3ccc(F)cc3)c3c2CCO3)cn1 | – | inactive: 48% [at 87.6 µM]
Cc1ccccc1-c1cn(C)c(=O)n2cc(COc3ccc(Cl)cc3)nc12 | inconclusive: 7.94 µM [inhibitor, full curve, poor fit] | –
CC1=C[C@@H](CNC(=O)C(C)(C)C)[C@H](C(C)C)C[C@H]1Cc1nnc(-c2ccccc2F)o1 | inconclusive: 15.8 µM [inhibitor, partial curve, poor fit] | –
CCC1CN(C(=O)C2CCN(S(=O)(=O)c3c(C)noc3/C=C/c3ccc(C)cc3)CC2)c2cc(C)ccc2O1 (stereo not drawn) | inconclusive: 2.82 µM [inhibitor, single point] | –
CN1CCN(c2cc(=O)c3ccnc(Nc4ccccn4)c3o2)CC1 | – | inactive: 20.6% [at 87.6 µM]
CC1(C(=O)N2CCC(c3ccccc3)CC2)CCc2cnc(N3CCOCC3)nc21 (stereo not drawn) | inconclusive: 56.2 µM [inhibitor, single point] | –
Cc1ccc(S(=O)(=O)N2CCCC(CCC(=O)O)C2)cc1 (stereo not drawn) | – | inactive: 1.23%

SMILES | Potency | activity change, negative = inhibition
CCN1CCN(C(=O)CC2CCCN(c3cnn(CCOC)c(=O)c3)C2)CC1 (stereo not drawn) | – | inactive: 14.7%
O=c1ccc2ccc(O)c(O)c2o1 | inactive | –
COc1ccc(N2CCN(c3ncnc4onc(C)c34)CC2)cc1 | inconclusive: 2.51 µM [inhibitor, full curve] | –
O=C(COc1ccccc1)Nc1ccc2n(c1=O)C[C@H]1C[C@@H]2CN(C(=O)c2cccnc2)C1 | inconclusive: 39.8 µM [inhibitor, single point] | –
COc1cccc(CNC[C@H]2O[C@H](Cc3cc(CN4CCOCC4)on3)CC[C@@H]2O)c1 | – | inactive: 16.7% [at 87.6 µM]
O=C(NCc1ccc(F)cc1)c1ccc2nnc(-c3ccc(F)cc3)n2c1 | – | inactive: 36.7%
O=S(=O)(c1cccc2c(I)cccc12)N1CCCNCC1 | inconclusive: 39.8 µM [inhibitor, single point] | –
COc1ccc(-c2cc3nc4c(c(=O)n3[nH]2)CN(S(=O)(=O)c2cccs2)CC4)cc1 | inconclusive: 22.4 µM [inhibitor, partial curve, poor fit] | –
Cc1ccc([S+](=O)([O-])N2CCc3nc(C4CC4)nc(-c4ccc(Cl)cc4)c3C2)cc1 | inconclusive: 39.8 µM [inhibitor, single point] | –
OC1(CN2CCCCC2)CCN(Cc2ccc(F)c(Cl)c2)C1 (stereo not drawn) | inconclusive: 3.16 µM [inhibitor, single point] | –
Cc1ccc([C@H]2C[C@@H](O)[C@@H](O)[C@@H]2N2CCCCC2)cc1 | inconclusive: 15.8 µM [inhibitor, single point] | –
CCCNC(=O)[C@@H]1Cc2cn(Cc3c(C)noc3C)c3cccc(c23)[C@H](CC(C)C)N1 | inconclusive: 44.7 µM [inhibitor, single point] | –
COc1cccc(CC(=O)N2CCCn3nc(C)c(-c4ccccc4OCc4ccccc4)c32)c1 | inconclusive: 22.4 µM [inhibitor, partial curve, poor fit] | –
O=C(CCS(=O)(=O)c1nc(-c2ccc3c(c2)OCO3)cc(C(F)(F)F)n1)Nc1ccccc1C(F)(F)F | inconclusive: 39.8 µM [inhibitor, single point] | –
O=C(c1ccco1)N1CC(Oc2ccccc2-c2nc(-c3cnccn3)no2)C1 | – | inactive: 4.36%
O=C(NCc1ccc(F)cc1)C1CCCN(Cc2cccc(-c3ccc(F)cc3F)c2)C1 (stereo not drawn) | – | inactive: -21.4%
Cc1ccc2nc(Cl)c3cc(C(=O)N4CCCC(C)C4)sc3c2c1 (stereo not drawn) | inconclusive: 2.51 µM [inhibitor, single point] | –
Cc1ccc(OC2(C(=O)NCc3cccc(N(C)C)c3)CCNCC2)cc1 | inconclusive: 8.91 µM [inhibitor, single point] | –
Cc1cccc(C(=O)NCC(c2ccc3c(c2)OCO3)N2CCN(c3ccccc3F)CC2)c1 (stereo not drawn) | inconclusive: 35.5 µM [inhibitor, single point] | –
Cn1cnnc1SCC(=O)Nc1cc(C(=O)O)cc(C(=O)O)c1 | inconclusive: 28.2 µM [inhibitor, single point] | –
COc1cccc(-c2ccc(C(=O)N3CCC(NC(=O)Nc4ccccc4)CC3)cc2)c1 | – | inactive: -22.7%

SMILES | Potency | activity change, negative = inhibition
CCc1noc(-c2cccn3c(CNC(=O)COc4ccccc4)nnc23)n1 | inconclusive: 25.1 µM [inhibitor, partial curve, poor fit] | –
CC(C)c1ccc(CN2CCc3ncc(C(=O)Nc4ccccc4)n3CC2)cc1 | inconclusive: 28.2 µM [inhibitor, partial curve] | –
CCN(CC)c1cc(CCC(=O)N2CCC(C)CC2)ccn1 | inconclusive: 5.62 µM [inhibitor, partial curve, poor fit] | –
COCCOc1ccc2c(n1)CCN(C(=O)c1ccccc1C)C2 | inconclusive: 10 µM [inhibitor, partial curve, poor fit] | –
CCOC(=O)c1cccc(NC(=O)CCc2c(C)nc3cc(-c4ccc(Cl)cc4)nn3c2C)c1 | inconclusive: 0.891 µM [inhibitor, full curve, poor fit] | –
COc1ccc(C(=O)N2CCC3(CC2)CC(N(Cc2ccccc2)C2CC2)CCO3)cc1 (stereo not drawn) | inconclusive: 31.6 µM [inhibitor, single point] | –
CS(=O)(=O)N(C1CCOCC1)C1CCN(C(=O)c2ccc(Cl)cc2)CC1 | – | inactive: 2.14%
Cc1ccc([C@H]2Nc3ccc(S(=O)(=O)Nc4cccc(Cl)c4C)cc3[C@H]3C=CC[C@H]32)cc1 | – | inactive: -9.66%
Cc1nn(-c2ccc(C(C)C)cc2)c(C)c1[C@@H]1C=C[C@@H](NCc2ccc(F)cc2)C1 | inconclusive: 56.2 µM [inhibitor, single point] | –
CCN1CCC(N2CCC3(CC2)NCCc2c3[nH]c3ccc(OC)cc23)CC1 | – | inactive: 12.6%
O=C(Cc1c[nH]c2ncc(-c3ccc(Oc4ccccc4)cc3)cc12)NCc1cccnc1 | inconclusive: 3.16 µM [inhibitor, partial curve, poor fit] | –
CCCc1noc(-c2cn(C3CCN(C(=O)c4ccc(OCC)cc4)CC3)nn2)n1 | inconclusive: 15.8 µM [inhibitor, single point] | –
O=[S+]1([O-])NCC2(CCCN(Cc3c(F)cccc3F)C2)Oc2ncccc21 (stereo not drawn) | inconclusive: 39.8 µM [inhibitor, single point] | –
CCOc1ccccc1CNC(=O)C1CCN(C2=NS(=O)(=O)C(c3ccc(C)c(C)c3)=C2C)CC1 | inconclusive: 0.891 µM [inhibitor, partial curve, poor fit] | –
Cc1ccc(C2NC(=O)N(CC(=O)Nc3ccc(F)cc3)C3=C2C(=O)OC3)cc1 (stereo not drawn) | inconclusive: 3.55 µM [inhibitor, full curve, poor fit] | –
CCN1C(=O)Cc2cc(C(=O)NC(C)c3ccccc3)ccc21 (stereo not drawn) | inconclusive: 7.94 µM [inhibitor, single point] | –
Cc1ccc([S+](=O)([O-])NC2CCN(C(=O)c3ccc(-c4cccs4)cc3)CC2)cc1 | inconclusive: 28.2 µM [inhibitor, single point] | –
CCn1ccc2sc(C)c(C(=O)NCCC(C)C)c2c1=O | inconclusive: 3.16 µM [inhibitor, single point] | –
COc1ccccc1CNC[C@@H]1C=C(C)[C@H](Cc2nc3c(C)cccc3[nH]2)C[C@H]1C(C)C | inconclusive: 25.1 µM [inhibitor, partial curve, poor fit] | –
O=S(=O)(NCC(c1ccco1)S(=O)(=O)c1cccs1)c1ccc(F)c(C(F)(F)F)c1 (stereo not drawn) | inconclusive: 39.8 µM [inhibitor, single point] | –
O=C(NC1CCOCC1)c1ccc2c(c1)OCCN(c1cccc(OC(F)(F)F)c1)C2 | inconclusive: 56.2 µM [inhibitor, single point] | –
